The target in experiment [1] is extracellular region of human EphrinB2, FLAG-tagged Fc-fusion protein (human) (UniProt P52799). The experiment in a line: ELISA; solid-phase binding assay: EphrinB2, Podoplanin, Tie1, Tie2 or integrin α9β1 coated at 5 μg/ml on Maxisorp plates overnight at 4°C; full-length Polydom (5 μg/ml) in solution, 2 h at room temperature, TBS with 0.1% BSA and 0.02% Tween-20; bound Polydom detected with anti-Pol-N antibody; integrin α9β1 in the absence or presence of 1 mM MnCl2; both purified. On the technique in general: In an ELISA, binding on a coated surface is turned into a signal by an enzyme label.

The chains behind the UniProt entries cited, without tags or fusion partners. Where a name states a change or a piece, a line headed by the entry shows the natural chain unless it says otherwise. Residues count along the entry.
UniProt P52799, residues 28-229: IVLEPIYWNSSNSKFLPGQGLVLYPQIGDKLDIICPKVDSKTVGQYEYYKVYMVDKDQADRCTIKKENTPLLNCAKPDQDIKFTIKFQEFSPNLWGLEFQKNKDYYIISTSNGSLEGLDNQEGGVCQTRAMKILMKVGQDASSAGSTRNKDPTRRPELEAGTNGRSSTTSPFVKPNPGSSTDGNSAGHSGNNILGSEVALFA
UniProt Q02763, residues 23-748: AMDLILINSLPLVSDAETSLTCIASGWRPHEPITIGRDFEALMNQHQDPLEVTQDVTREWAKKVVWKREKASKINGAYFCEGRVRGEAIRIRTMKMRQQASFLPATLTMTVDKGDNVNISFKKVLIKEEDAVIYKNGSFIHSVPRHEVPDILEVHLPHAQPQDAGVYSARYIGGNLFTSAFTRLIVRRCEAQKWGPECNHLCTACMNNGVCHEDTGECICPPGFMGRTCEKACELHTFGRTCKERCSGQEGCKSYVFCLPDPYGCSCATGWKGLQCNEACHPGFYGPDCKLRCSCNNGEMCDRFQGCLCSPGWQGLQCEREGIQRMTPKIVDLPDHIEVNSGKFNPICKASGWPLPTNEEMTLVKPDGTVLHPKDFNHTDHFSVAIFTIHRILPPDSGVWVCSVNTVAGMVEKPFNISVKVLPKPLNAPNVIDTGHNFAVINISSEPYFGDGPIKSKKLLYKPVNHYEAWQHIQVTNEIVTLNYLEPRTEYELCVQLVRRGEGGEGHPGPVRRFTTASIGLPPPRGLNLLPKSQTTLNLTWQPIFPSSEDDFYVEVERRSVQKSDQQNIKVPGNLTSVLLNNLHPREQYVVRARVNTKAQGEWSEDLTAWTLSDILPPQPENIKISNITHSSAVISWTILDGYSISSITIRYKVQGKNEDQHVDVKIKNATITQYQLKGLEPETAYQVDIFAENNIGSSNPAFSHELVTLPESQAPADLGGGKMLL
recombinant full-length mouse Polydom (A2AVA0, residues 18-3567): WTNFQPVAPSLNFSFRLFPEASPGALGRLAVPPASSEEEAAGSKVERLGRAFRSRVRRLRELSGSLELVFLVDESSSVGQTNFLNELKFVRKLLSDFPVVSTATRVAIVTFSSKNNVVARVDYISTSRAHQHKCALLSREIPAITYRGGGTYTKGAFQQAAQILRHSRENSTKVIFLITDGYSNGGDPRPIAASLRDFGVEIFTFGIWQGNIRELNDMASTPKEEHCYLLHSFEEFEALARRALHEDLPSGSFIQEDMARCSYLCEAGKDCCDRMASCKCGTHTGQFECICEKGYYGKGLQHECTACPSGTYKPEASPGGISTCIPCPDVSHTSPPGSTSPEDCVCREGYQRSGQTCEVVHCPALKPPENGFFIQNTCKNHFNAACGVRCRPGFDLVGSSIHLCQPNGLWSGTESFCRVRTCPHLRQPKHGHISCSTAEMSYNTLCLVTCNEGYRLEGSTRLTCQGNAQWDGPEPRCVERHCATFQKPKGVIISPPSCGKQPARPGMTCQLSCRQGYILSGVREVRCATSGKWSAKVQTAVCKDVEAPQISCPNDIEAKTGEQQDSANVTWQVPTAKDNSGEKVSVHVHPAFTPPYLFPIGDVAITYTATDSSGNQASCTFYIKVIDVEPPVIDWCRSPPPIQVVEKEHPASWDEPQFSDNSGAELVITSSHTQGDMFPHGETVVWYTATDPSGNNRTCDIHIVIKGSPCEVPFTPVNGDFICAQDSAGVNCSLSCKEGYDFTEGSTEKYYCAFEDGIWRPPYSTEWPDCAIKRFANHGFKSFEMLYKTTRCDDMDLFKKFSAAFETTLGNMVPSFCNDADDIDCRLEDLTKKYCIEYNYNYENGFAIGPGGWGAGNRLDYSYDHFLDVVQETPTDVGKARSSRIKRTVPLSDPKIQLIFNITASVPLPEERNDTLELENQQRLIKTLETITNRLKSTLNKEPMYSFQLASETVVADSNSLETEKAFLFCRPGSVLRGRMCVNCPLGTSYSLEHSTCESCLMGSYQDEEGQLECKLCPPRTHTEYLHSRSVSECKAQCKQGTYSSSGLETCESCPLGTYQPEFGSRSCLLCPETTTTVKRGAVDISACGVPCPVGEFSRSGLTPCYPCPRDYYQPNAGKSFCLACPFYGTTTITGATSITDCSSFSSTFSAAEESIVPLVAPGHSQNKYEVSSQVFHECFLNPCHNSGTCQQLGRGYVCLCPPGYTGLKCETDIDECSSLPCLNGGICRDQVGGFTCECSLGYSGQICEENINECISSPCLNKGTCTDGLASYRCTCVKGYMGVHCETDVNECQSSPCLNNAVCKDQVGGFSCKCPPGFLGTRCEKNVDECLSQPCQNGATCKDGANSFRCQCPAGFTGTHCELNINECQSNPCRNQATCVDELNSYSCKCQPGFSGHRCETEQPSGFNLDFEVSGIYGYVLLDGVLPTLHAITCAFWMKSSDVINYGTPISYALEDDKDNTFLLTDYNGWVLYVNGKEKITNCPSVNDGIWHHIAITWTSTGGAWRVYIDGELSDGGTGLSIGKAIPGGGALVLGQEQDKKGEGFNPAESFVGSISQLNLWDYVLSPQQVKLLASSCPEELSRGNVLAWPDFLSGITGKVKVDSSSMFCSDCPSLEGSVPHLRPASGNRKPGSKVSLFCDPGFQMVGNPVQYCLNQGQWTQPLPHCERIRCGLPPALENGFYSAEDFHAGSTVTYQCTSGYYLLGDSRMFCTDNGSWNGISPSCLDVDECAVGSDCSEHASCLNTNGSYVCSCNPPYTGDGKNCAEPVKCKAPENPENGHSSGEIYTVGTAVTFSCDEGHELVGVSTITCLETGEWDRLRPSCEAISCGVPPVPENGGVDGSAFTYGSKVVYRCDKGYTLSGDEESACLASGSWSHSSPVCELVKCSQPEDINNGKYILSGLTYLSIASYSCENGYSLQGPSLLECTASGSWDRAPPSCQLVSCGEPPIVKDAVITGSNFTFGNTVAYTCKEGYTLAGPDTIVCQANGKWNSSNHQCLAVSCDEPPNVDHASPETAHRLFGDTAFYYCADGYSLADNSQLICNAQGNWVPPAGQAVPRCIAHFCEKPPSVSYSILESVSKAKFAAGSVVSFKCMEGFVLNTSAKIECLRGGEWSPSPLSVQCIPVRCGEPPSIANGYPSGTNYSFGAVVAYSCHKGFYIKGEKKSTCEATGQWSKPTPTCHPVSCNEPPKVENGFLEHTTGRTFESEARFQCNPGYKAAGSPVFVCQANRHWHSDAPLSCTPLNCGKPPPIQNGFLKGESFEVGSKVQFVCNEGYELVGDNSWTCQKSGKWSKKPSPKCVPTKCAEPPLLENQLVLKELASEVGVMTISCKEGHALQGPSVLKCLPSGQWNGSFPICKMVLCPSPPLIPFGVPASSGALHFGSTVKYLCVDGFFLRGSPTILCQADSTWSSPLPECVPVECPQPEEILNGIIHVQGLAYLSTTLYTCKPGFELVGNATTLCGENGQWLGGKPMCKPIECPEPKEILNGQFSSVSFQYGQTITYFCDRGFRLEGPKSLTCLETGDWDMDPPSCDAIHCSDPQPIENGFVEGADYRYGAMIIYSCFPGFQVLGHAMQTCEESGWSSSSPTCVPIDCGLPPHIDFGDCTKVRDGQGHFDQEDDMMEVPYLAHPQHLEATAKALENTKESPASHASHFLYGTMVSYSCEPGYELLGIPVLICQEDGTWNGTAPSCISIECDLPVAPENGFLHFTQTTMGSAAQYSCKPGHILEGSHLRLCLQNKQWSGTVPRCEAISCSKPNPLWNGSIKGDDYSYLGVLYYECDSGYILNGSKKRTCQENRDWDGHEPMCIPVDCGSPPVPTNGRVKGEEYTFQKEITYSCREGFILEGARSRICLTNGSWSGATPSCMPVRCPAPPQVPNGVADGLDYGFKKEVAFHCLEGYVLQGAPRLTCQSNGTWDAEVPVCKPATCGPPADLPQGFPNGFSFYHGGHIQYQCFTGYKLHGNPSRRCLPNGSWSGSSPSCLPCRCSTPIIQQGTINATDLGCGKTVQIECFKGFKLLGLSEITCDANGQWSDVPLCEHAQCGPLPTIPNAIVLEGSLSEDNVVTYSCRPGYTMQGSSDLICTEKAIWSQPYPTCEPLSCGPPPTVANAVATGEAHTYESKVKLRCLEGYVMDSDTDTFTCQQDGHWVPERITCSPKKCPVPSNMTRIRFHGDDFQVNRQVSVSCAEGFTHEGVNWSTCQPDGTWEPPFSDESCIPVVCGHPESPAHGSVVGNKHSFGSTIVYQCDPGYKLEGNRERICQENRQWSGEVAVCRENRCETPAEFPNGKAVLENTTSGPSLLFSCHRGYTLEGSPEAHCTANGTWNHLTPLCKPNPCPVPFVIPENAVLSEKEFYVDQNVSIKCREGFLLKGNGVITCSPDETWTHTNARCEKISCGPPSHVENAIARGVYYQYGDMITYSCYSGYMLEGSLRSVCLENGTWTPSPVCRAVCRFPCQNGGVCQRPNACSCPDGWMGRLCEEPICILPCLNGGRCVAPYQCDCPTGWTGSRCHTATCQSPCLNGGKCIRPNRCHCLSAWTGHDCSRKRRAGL

The target in experiment [2] is recombinant Tie2 extracellular domain, Fc fusion protein (UniProt Q02763). The description is as above.
The target in experiment [3] is T1, recombinant Tie1 extracellular domain, Fc fusion protein (UniProt P35590).
T1 sequence: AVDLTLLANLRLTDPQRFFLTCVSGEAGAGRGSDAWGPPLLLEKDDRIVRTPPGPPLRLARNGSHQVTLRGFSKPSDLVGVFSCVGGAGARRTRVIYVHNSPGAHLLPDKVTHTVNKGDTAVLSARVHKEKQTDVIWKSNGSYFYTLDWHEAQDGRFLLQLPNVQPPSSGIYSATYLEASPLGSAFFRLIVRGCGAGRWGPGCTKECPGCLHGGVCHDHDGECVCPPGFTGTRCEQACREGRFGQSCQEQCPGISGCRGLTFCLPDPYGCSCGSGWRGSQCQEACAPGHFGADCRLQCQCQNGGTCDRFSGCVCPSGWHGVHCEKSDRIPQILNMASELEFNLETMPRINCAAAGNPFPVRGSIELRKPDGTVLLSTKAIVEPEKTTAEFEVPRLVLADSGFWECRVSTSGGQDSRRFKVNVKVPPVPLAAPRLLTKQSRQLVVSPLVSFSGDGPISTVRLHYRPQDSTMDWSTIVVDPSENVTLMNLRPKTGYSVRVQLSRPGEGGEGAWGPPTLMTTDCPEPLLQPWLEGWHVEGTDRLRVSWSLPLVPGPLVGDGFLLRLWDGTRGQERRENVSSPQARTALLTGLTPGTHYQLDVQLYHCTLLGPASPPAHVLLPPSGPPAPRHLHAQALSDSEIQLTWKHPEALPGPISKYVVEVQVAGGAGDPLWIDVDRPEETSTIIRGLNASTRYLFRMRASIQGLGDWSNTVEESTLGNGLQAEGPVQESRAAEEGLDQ
Described as above.

For experiment [4], the target named is T2, extracellular region of human Podoplanin, FLAG-tagged Fc-fusion protein (human) (UniProt Q86YL7).
T2 sequence: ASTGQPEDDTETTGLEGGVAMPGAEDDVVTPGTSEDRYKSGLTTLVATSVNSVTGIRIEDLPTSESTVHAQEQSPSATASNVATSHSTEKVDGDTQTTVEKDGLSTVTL
The description is as above.

Experiment [5] addresses T3, recombinant full-length mouse Polydom (mouse, UniProt A2AVA0 18-3567).
T3 construct: Polydom (SVEP1), mouse, full length; expression vector as in Sato-Nishiuchi et al., 2012; The construct is described in Sato-Nishiuchi et al., 2012; also called SVEP1; full-length Polydom
In words: ELISA; reverse solid-phase binding assay, titration: full-length Polydom coated (10 nM by the legend), serially diluted Tie1-Fc or Tie2-Fc in solution, detected with HRP anti-human IgG against the Fc tag; apparent dissociation constant; both purified.

Experiment [6] deals with full-length Polydom E2567A mutant (mouse) (UniProt A2AVA0). The experiment in a line: ELISA; reverse solid-phase binding assay, one concentration: Polydom, Polydom deletion mutants or GST-fused Polydom fragments coated at 2 μg/ml, Tie1-Fc (2 μg/ml) in solution, detected with HRP anti-human IgG against the Fc tag; both purified.

No constants are given. Whether binding was seen depends on the method and setting. Some results given as binding are weak or reduced against the parent protein; the word gives no strength. For part of these data: Sequences can lack the tags named with a protein.

With “recombinant full-length mouse Polydom (from UniProt A2AVA0 18-3567)”, the binding result in experiment [1] is given as “no binding (tested: 5 μg/ml Polydom)”; in experiment [2], “no binding (tested: 5 μg/ml Polydom)”; in experiment [3], “binds”; in experiment [4], “no binding (tested: 5 μg/ml Polydom)”.
As to “recombinant Tie2 extracellular domain, Fc fusion protein (from UniProt Q02763 23-748)”, the binding entry in experiment [5] is reported as “no binding”.

B1: recombinant Tie1 extracellular domain, Fc fusion protein (Fc fusion, UniProt P35590 22-759, looked up)
chain: T1 sequence
notes: Tie1, extracellular domain, expressed as Fc fusion protein; The Fc tag was detected with an anti-human IgG antibody; also called Tie1 with an Fc tag; source: bought: R&D Systems
In the case of B1, the binding result in experiment [6] is reported as “no binding”.
